From US20100227313A1, “Methods and Compositions for Determining Altered Susceptibility of HIV-1 to Protease Inhibitor Treatment” (priority 2007, published 2010)
This continues a long series; more values of the same kind are listed elsewhere.

System: HIV-1
Assay: Resistance test vector (PHENOSENSE) phenotypic susceptibility assay, fold change in IC50, correlated with genotype (Fisher's Exact test, odds ratio)
Assay type: cell-based, human immunodeficiency virus type 1
Excerpt: See Petropoulos et al., 2000, Antimicrob. Agents Chemother. 44:920-928; U.S. Pat. Nos. 5,837,464 and 6,242,187. PHENOSENSE™ is a phenotypic assay that achieves the benefits of phenotypic testing and overcomes the drawbacks of previous assays.
PHENOSENSE™ can obtain results with only one round of viral replication, thereby avoiding selection of subpopulations of virus that can occur during preparation of viral stocks required for assays that rely on fully infectious virus.
A resistance test vector (“RTV”) can then be constructed by incorporating the amplified viral gene sequences into a replication defective viral vector by using any method known in the art of incorporating gene sequences into a vector. In one embodiment, restrictions enzymes and conventional cloning methods are used. See Sambrook et al., 2001, Molecular Cloning: A Laboratory Manual, Cold Spring Harbor Laboratory, 3rd ed., NY; and Ausubel et al., 1989, Current Protocols in Molecular Biology, Greene Publishing Associates and Wiley Interscience, NY. In a preferred embodiment, ApaI and PinAI restriction enzymes are used. Preferably, the replication defective viral vector is the indicator gene viral vector (“IGVV”). In a preferred embodiment, the viral vector contains a means for detecting replication of the RTV. Preferably, the viral vector contains a luciferase expression cassette.
The assay can be performed by first co-transfecting host cells with RTV DNA and a plasmid that expresses the envelope proteins of another retrovirus, for example, amphotropic murine leukemia virus (MLV). Following transfection, viral particles can be harvested from the cell culture and used to infect fresh target cells in the presence of varying amounts of anti-viral drug(s). The completion of a single round of viral replication in the fresh target cells can be detected by the means for detecting replication contained in the vector. In a preferred embodiment, the completion of a single round of viral replication results in the production of luciferase. By monitoring the amount of, e.g., luciferase activity in the presence of the varying amounts of antiviral drug(s), a resistance curve can be constructed by plotting luciferase activity versus drug concentration. The susceptibility of an HIV, or population of HIV, can be determined by measuring the concentration of antiviral drug at which the luciferase activity detected is half-maximal. This number, the IC50, provides a standard and convenient measure of drug resistance.
Patient derived segment(s) corresponding to the HIV protease and reverse transcriptase coding regions were amplified by the reverse transcription polymerase chain reaction method (RT PCR) using viral RNA isolated from viral particles present in the plasma or serum of HIV infected individuals as follows. Viral RNA was isolated from the plasma or serum using oligo-dT magnetic beads (Dynal Biotech, Oslo, Norway), followed by washing and elution of viral RNA. The RT PCR protocol was divided into two steps. A retroviral reverse transcriptase (e.g. Moloney MuLV reverse transcriptase (Roche Molecular Systems, Inc., Branchburg, N.J.; Invitrogen, Carlsbad, Calif.), or avian myeloblastosis virus (AMV) reverse transcriptase, (Boehringer Mannheim, Indianapolis, Ind.) was used to copy viral RNA into cDNA. The cDNA was then amplified using a thermostable DNA polymerase (e.g. Taq (Roche Molecular Systems, Inc., Branchburg, N.J.), Tth (Roche Molecular Systems, Inc., Branchburg, N.J.), PRIMEZYME™ (isolated from Thermus brockianus, Biometra, Gottingen, Germany)) or a combination of thermostable polymerases as described for the performance of “long PCR” (Barnes, W.M., 1994, Proc. Natl. Acad. Sci, USA 91, 2216 20) (e.g. Expand High Fidelity PCR System (Taq+Pwo), (Boehringer Mannheim. Indianapolis, Ind.); GENEAMP XL™ PCR kit (Tth+Vent), (Roche Molecular Systems, Inc., Branchburg, N.J.); or […] II®, Clontech, Palo Alto, Calif.)

## CC(C)CN(C[C@@H](O)[C@H](Cc1ccccc1)NC(=O)O[C@H]1CCOC1)S(=O)(=O)c1ccc(N)cc1 [APV, amprenavir]
Mutation A71T in PR, increased susceptibility (Table 3)
  Odds Ratio: 0.71
Mutation D30N in PR, increased susceptibility (Table 3)
  Odds Ratio: 0.16
Mutation D425E in gag, reduced susceptibility (FC>2)
  Odds Ratio: 1.59
Mutation F463L in gag, reduced susceptibility (FC>2)
  Odds Ratio: 1.57
Mutation H441Y in gag, increased susceptibility (Table 3)
  Odds Ratio: 0.67
Mutation I15V in PR, reduced susceptibility (FC>2)
  Odds Ratio: 1.60
Mutation I50L in PR, increased susceptibility (Table 3)
  Odds Ratio: 0.42
Mutation I64L in PR, increased susceptibility (Table 3)
  Odds Ratio: 0.58
Mutation I64V in PR, increased susceptibility (Table 3)
  Odds Ratio: 0.80
Mutation I93L in PR, increased susceptibility (Table 3)
  Odds Ratio: 0.89
Mutation K43R in PR, increased susceptibility (Table 3)
  Odds Ratio: 0.35
Mutation K45R in PR, increased susceptibility (Table 3)
  Odds Ratio: 0.32
Mutation L63A in PR, increased susceptibility (Table 3)
  Odds Ratio: 0.51
Mutation L63Q in PR, increased susceptibility (Table 3)
  Odds Ratio: 0.47
Mutation L63S in PR, increased susceptibility (Table 3)
  Odds Ratio: 0.53
Mutation L89V in PR, reduced susceptibility (FC>2)
  Odds Ratio: >>>
Mutation L486S in gag, increased susceptibility (Table 3)
  Odds Ratio: 0.48
Mutation N88D in PR, increased susceptibility (Table 3)
  Odds Ratio: 0.26
Mutation N88S in PR, increased susceptibility (Table 3)
  Odds Ratio: 0.07
Mutation P453L in gag, reduced susceptibility (FC>2)
  Odds Ratio: 1.58
Mutation S451N in gag, increased susceptibility (Table 3)
  Odds Ratio: 0.59
Mutation S498L in gag, increased susceptibility (Table 3)
  Odds Ratio: 0.53
Mutation S499L in gag, increased susceptibility (Table 3)
  Odds Ratio: 0.47
Mutation V77I in PR, increased susceptibility (Table 3)
  Odds Ratio: 0.60
